Assay results taken from patent publication US5773424A, “Treatment of toxoplasmosis” (priority 1994, dated 1998).
For some assays here: At least one structure is not confirmed: it was looked up by name or label, or the drawing left a doubt. Some of these results come from one statement about several compounds together.

What was measured:
[1] = molecular target: T. gondii adenosine kinase (Toxoplasma gondii, UniProt Q9TVW2); details: relative to reference compound adenosine
Procedure: Preparation of cytosol extracts. For the structure activity relationships studies, approximately 5×10^8 T. gondii were suspended in 1.2 ml of 50 mM N-2-hydroxyethylpiperazine-N'-2-ethanesulfonic acid (HEPES)-Cl (pH 8.0)/1 mM dithiothreitol and homogenized for 30 seconds at setting 10, using a Brinnmann Instruments Polytron homogenizer fitted with a PTA 7K1 probe. The homogenate was then centrifuged at approximately 116,000 g for 1 hour at 5° and the supernatant (cytosol extract) collected and used as the enzyme source. Fresh cytosol extracts were prepared for each experiment.
Adenosine kinase assay. T. gondii adenosine kinase activity was measured by following the formation of [^14 C]AMP from [^14 C]adenosine and ATP. […] Therefore, the standard reaction mixture contained 50 mM HEPES-Cl (pH 8.0), 1 mM dithiothreitol, 5 μM [8-^14 C]adenosine (45 Ci/mol), 0.5 mM ATP, 0.5 mM MgCl2, 25 μM (+)-EHNA or 100 μM (±)-EHNA,10-30 μl of cytosol extract (approximately 3-10 μg of protein), and either 0, 0.1, 0.25, 0.5 or 1.0 mM of the compound to be tested, in a final volume of 150 μl.
Reactions were started by the addition of [8-^14 C]adenosine, incubated at 37° for 10 minutes and terminated by placing the reaction tubes in a boiling water bath for 2 minutes. Precipitated proteins were removed by centrifugation in a microcentrifuge (approximately 13,000 g) for 5 minutes, and a 15 μl aliquot of the resulting supernatant was mixed with 5 μl of a solution containing 10 mM each of AMP and adenosine. This mixture was then spotted on silica gel thin layer chromatography plates which were developed with a mixture of chloroform/methanol/acetic acid (16:3:1). […] The substrate and product spots (which accounted for all of the radioactivity on the plates) were identified by UV quenching, cut out, and the radioactivity quantitated by liquid scintillation counting in 20 ml of Scintilene, using a Packard 460 scintillation counter. […] Enzyme velocity was calculated by multiplying the fraction of AMP formed from adenosine times the amount of adenosine in the assay, and dividing by the incubation time.
Determination and significance of AppKi values. AppKi values were used to determine the relative degree of binding of compounds to adenosine kinase as compared to adenosine. AppKi values were estimated from Dixon plots of the data (1/.nu. versus [I]), using a computer program with least squares fitting according to the general principles of Cleland (Cleland, W W, The statistical analysis of enzyme kinetic data. Adv. Enzymol. 29:1-32, 1967). The program was written by Dr. Sungman Cha (Brown University, Providence, R.I.) and modified to fit IBM BASIC by Dr. Fardos N. M. Naguib. […] It should be noted, however, that the type of inhibition (i.e., competitive, noncompetitive, or uncompetitive) produced by the compounds was not determined, nor were the compounds evaluated as substrates for T. gondii adenosine kinase.

[2] = tested on: T. gondii phosphoribosyltransferases; test: Kinetic parameters of phosphoribosyltransferases; type: biochemical, Toxoplasma gondii; details: compound as substrate, pH 7.4; for Km: read-out: apparent Km
T. gondii XPRTase = test: Phosphoribosyltransferase assay, xanthine as substrate (apparent Ki); type: biochemical, Toxoplasma gondii; details: competition studies between substrates
[3] = tested on: extracts of Toxoplasma gondii; test: Inhibition of phosphorylation of NBMPR (formation of NBMPR-P); type: biochemical
Procedure: (§1) Enzyme assay. […] Incubation was carried out at 37° C.

[4] = tested on: extracts from RH wild type strain and adenosine kinase deficient ara-A^R mutant strain of T. gondii; test: Phosphorylation of adenosine and NBMPR by extracts of RH and ara-A^R strains; type: biochemical, Toxoplasma gondii
[5] = tested on: extracts from human liver; test: Inhibition of phosphorylation of adenosine; type: biochemical
Procedure: as §1

[6] = tested on: extracts from mouse liver; test: Inhibition of phosphorylation of adenosine; type: biochemical
Procedure: as §1

extracts of human liver = test: Inhibition of phosphorylation of NBMPR; type: biochemical
Procedure: as §1

[7] = tested on: extracts of Toxoplasma gondii; test: Inhibition of phosphorylation of adenosine (or inosine) to nucleoside 5'-monophosphate; type: biochemical
Procedure: as §1

[8] = tested on: Toxoplasma gondii grown in human fibroblasts; test: Incorporation of radiolabeled uracil (parasite survival); type: cell-based; details: in vitro
Procedure: Incorporation of Radiolabeled Uracil. […] Uptake and incorporation of radiolabeled uracil into nucleic acids of T. gondii were carried out, at least in triplicates, in tissue culture, using monolayers of human foreskin fibroblasts infected with T. gondii. The fibroblasts were cultured in no more than 30 passages in Dulbecco's modified Eagle medium, containing 100 units/mL penicillin G and 100 μg/mL streptomycin sulfate, and 10% FBS, pH 7.2. Briefly, confluent cells (4-5 day incubation) were cultured for 24 hours in the 24-well flat bottom microtiterplates (~5×10^5 /1 mL/well) and incubated at 37° C. in 5% CO2, 95% air to allow the cells to attach. The medium was then removed and the cells were infected with isolated T. gondii in medium with 3% FBS (1 parasite/cell). After 1 hour incubation, the cultures were washed with media with 10% FBS to remove extracellular parasites. FBS was maintained at a final concentration of 10%. […] After filtration, the filters were washed with 10 mL methanol, left to dry, and then placed in scintillation vials containing 5 mL of Econo-Safe scintillation fluor (Research Products International Corp., Mount Prospect, Ill.), and radioactivity was counted using an LS5801 Beckman scintillation counter.

T. gondii GPRTase = test: Phosphoribosyltransferase assay, guanine as substrate (apparent Ki); type: biochemical, Toxoplasma gondii; details: competition studies between substrates
[9] = adenosine kinase deficient ara-A^R mutant strain

Chain of T. gondii adenosine kinase (Q9TVW2 whole entry): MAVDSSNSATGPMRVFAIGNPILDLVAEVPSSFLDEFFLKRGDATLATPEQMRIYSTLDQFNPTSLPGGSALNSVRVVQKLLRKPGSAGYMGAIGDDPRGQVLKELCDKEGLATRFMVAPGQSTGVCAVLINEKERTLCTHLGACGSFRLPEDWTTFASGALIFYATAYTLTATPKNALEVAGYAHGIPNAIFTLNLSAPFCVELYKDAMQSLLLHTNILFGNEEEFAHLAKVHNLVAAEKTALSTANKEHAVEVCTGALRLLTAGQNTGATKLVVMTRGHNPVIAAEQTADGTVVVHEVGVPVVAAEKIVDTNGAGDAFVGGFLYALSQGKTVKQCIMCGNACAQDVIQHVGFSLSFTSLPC

## Nc1ncnc2c1ncn2[C@@H]1O[C@H](COS(=O)(=O)O)[C@@H](O)[C@H]1O [Compound 97, 5'-Sufonyl adenosine (adenosine 5'-monosulfate)]
[1]
  Decrease in binding to T. gondii adenosine kinase: ≥ 30 fold

## Nc1nc2nc[nH]c2c(=O)[nH]1 [Compound 2, 2-Aminohypoxanthine (guanine)]
[2]
  apparent Vmax: 0.72±0.07 mmol/min per mg protein
T. gondii XPRTase
  Type of inhibition of XPRTase: competitive inhibitor

## O=c1[nH]c(=O)c2nc[nH]c2[nH]1 [Compound 4, 2-Oxohypoxanthine (xanthine)]
[2]
  apparent Vmax: 1.1±0.1 mmol/min per mg protein
  Km: 3 ± 0.4 µM

## Nc1ncnc2c1ncn2[C@@H]1O[C@H](CO)[C@@H](O)[C@H]1O [Compound 1, β-D-Adenosine (9-(β-D-ribofuranosyl)adenine)]
[3]
  Effect on the formation of NBMPR-P from NBMPR, in words: inhibits
[3]; adenosine 50 [μ], NBMPR 25 μM
  Percent inhibition of formation of NBMPR-P from NBMPR: 66%
[3]; adenosine 50 [μ], NBMPR 50 μM
  Percent inhibition of formation of NBMPR-P from NBMPR: 85%
[3]; adenosine 75 [μ], NBMPR 25 μM
  Percent inhibition of formation of NBMPR-P from NBMPR: 96%
[3]; adenosine 75 [μ], NBMPR 50 μM
  Percent inhibition of formation of NBMPR-P from NBMPR: 91%
[3]; adenosine 150 [μ], NBMPR 25 μM
  Percent inhibition of formation of NBMPR-P from NBMPR: 100%
[3]; adenosine 150 [μ], NBMPR 50 μM
  Percent inhibition of formation of NBMPR-P from NBMPR: 98%
[4]; RH wild type strain
  Phosphorylation of substrate by extract: 309.8 ± 3.2 fmol/min/mg protein
[4]; [9]
  Phosphorylation of substrate by extract: 4.3 ± 1.2 fmol/min/mg protein

## CNC(=O)[C@H]1O[C@@H](n2cnc3c(N)ncnc32)[C@H](O)[C@@H]1O [Compound 102, 5'-N-(Methyl)carboxamidoadenosine]
[1]
  Decrease in binding to T. gondii adenosine kinase: ≥ 30 fold

## Nc1ncnc2c1ncn2[C@@H]1O[C@H](CI)[C@@H](O)[C@H]1O [Compound 96, 5'-Iodo-5'-deoxyadenosine]
[1]
  Decrease in binding to T. gondii adenosine kinase: ≥ 30 fold

## O=[N+]([O-])c1ccc(CSc2ncnc3c2ncn3[C@@H]2O[C@H](CO)[C@@H](O)[C@H]2O)cc1 [Compound 21, 6-(p-Nitrobenzyl)mercaptopurine riboside (NBMPR)]
[4]; RH wild type strain
  Phosphorylation of substrate by extract: 248.9 ± 15.7 fmol/min/mg protein
[4]; [9]
  Phosphorylation of substrate by extract: 2.5 ± 0.1 fmol/min/mg protein

## Nc1ncnc2c1c(I)cn2[C@@H]1O[C@H](CO)[C@@H](O)[C@H]1O [Compound 53, 7-Iodo-7-deazaadenosine (5-Iodotubercidin)]
[5]; 10 μM
  % Inhibition of phosphorylation of adenosine, Human Liver: 95.9%
[5]; 25 μM
  % Inhibition of phosphorylation of adenosine, Human Liver: 100%
[6]; 10 μM
  % Inhibition of phosphorylation of adenosine, Mouse Liver: 97.2%
[6]; 25 μM
  % Inhibition of phosphorylation of adenosine, Mouse Liver: 97.5%
Extracts of human liver; 10 μM
  % Inhibition of phosphorylation of NBMPR, Human Liver: 87.2%
Extracts of human liver; 25 μM
  % Inhibition of phosphorylation of NBMPR, Human Liver: 75.6%
Extracts of human liver; 50 μM
  % Inhibition of phosphorylation of NBMPR, Human Liver: 78.1%
[7]; 10 μM
  % Inhibition of phosphorylation of adenosine, T. gondii: 82.9%
[7]; 25 μM
  % Inhibition of phosphorylation of adenosine, T. gondii: 85.6%
[3]; 10 μM
  % Inhibition of phosphorylation of NBMPR, T. gondii: 74.8%
[3]; 25 μM
  % Inhibition of phosphorylation of NBMPR, T. gondii: 60.0%
[3]; 50 μM
  % Inhibition of phosphorylation of NBMPR, T. gondii: 66.5%

## O=[N+]([O-])c1ccc(C[Se]c2ncnc3c2ncn3[C@@H]2O[C@H](CO)[C@@H](O)[C@H]2O)cc1 [Compound 24, 6-(p-Nitrobenzyl)selenopurine riboside]
[8]
  Effect on T. gondii grown in human fibroblasts, in words: promising

## Nc1ncnc2c1ncn2[C@@H]1O[C@H](COC(=O)c2ccc(S(=O)(=O)F)cc2)[C@@H](O)[C@H]1O [Compound 105, 5'-(p-Fluorosulfonylbenzoyl)adenosine]
[1]
  Decrease in binding to T. gondii adenosine kinase: ≥ 30 fold

## Nc1ncnc2c1ncn2[C@@H]1O[C@H](C(=O)NC2CC2)[C@@H](O)[C@H]1O [Compound 104, 5'-N-(Cyclopropyl)carboxamidoadenosine]
[1]
  Decrease in binding to T. gondii adenosine kinase: ≥ 30 fold

## CCNC(=O)[C@H]1O[C@@H](n2cnc3c(N)ncnc32)[C@H](O)[C@@H]1O [Compound 103, 5'-N-(Ethyl)carboxamidoadenosine]
[1]
  Decrease in binding to T. gondii adenosine kinase: ≥ 30 fold

## Nc1ncnc2[nH]cnc12 [Compound 7, 6-Aminopurine (adenine)]
[2]
  apparent Vmax: 0.099±0.007 mmol/min per mg protein
  Km: 2.9 ± 0.8 µM
T. gondii XPRTase
  Type of inhibition of XPRTase: did not inhibit
T. gondii GPRTase
  Type of inhibition of GPRTase: did not inhibit
